# Experimental data reported in PubChem BioAssay AID1745853 (National Center for Advancing Translational Sciences (NCATS), 2022).
# This is one part of the list. Further columns of the screen follow, without active or inactive calls.
# How the values were obtained:
# Assay in all cases: Primary Screen for Target Class Profiling of Small Molecule Inhibitors of Methyltransferases
# [1] = biological target: Glycine N-methyltransferase (Homo sapiens) (UniProt Q14749); conditions: purified enzyme, MTase-Glo SAH luminescence; measured here: GNMT inhibition; at 40 µM; stronger effect = lower value
# Method in brief: (§1)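 Each enzyme was reacted with SAM and its substrate, with compounds tested once at 40 uM; SAH formed was read by MTase-Glo luminescence.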
# [2] = biological target: Guanidinoacetate N-methyltransferase (Homo sapiens) (UniProt Q14353); conditions: purified enzyme, MTase-Glo SAH luminescence; measured here: GAMT inhibition; at 40 µM; stronger effect = lower value
# Method in brief: as §1
# [3] = biological target: Histamine N-methyltransferase (Homo sapiens) (UniProt P50135); conditions: purified enzyme, MTase-Glo SAH luminescence; measured here: HNMT inhibition; at 40 µM; stronger effect = lower value
# Method in brief: as §1
# [4] = biological target: Nicotinamide N-methyltransferase (Homo sapiens) (UniProt P40261); conditions: purified enzyme, MTase-Glo SAH luminescence; measured here: NNMT inhibition; at 40 µM; stronger effect = lower value
# Method in brief: as §1
# [5] = biological target: Phenylethanolamine N-methyltransferase (Homo sapiens) (UniProt P11086); conditions: purified enzyme, MTase-Glo SAH luminescence; measured here: PNMT inhibition; at 40 µM; stronger effect = lower value
# Method in brief: as §1
# % is set by controls: 0 for no effect and ±100 for the full control effect.
SMILES,"activity change, negative = inhibition [1]","activity change, negative = inhibition [2]","activity change, negative = inhibition [3]","activity change, negative = inhibition [4]","activity change, negative = inhibition [5]"
CCCn1c(=O)c2ccc(C(=O)NC(C)CC)cc2n2c(=O)n(Cc3c(F)cccc3Cl)nc12 (stereo not given),4.79%,1.19%,6.94%,7.82%,6.79%
CCN1C(=O)c2cc(C(=O)N3CCN(c4cc(C)ccc4C)CC3)nn2CC1(C)C(=O)NC1CCCC1 (stereo not given),1.85%,0.313%,3.02%,1.74%,4.11%
CC/C=C/CC1=C(CCCCC(CCC(=O)O)OC(C)=O)CCC1=O (stereo not given),-1.21%,-13.6%,4.79%,-27.6%,-10.9%
CON(C)C(=O)N1N=C(c2cc(F)ccc2F)S[C@@]1(CCCN)c1ccccc1,-0.042%,3.58%,-1.91%,-15.3%,-6.05%
CC(=O)N1CCC(N[C@@H]2CO[C@H](CNS(C)(=O)=O)[C@H]2O)CC1,-5.21%,-7.56%,-2.36%,-10.1%,-10.2%
Cc1nc(C2CC(O)C2)cc(N2CCC(OCc3cccnc3)CC2)n1 (stereo not given),-1.48%,-1.42%,-3.33%,-2.67%,0.93%
CC1(C(=O)NC2CCCCCC2)Cc2ccccc2C(=O)N1Cc1ccccc1Cl (stereo not given),-2.9%,1.4%,-0.506%,3.71%,-1.45%
O=C(Cn1ccc2cc(S(=O)(=O)N3CCCCC3)ccc21)NCCN1CCOCC1,7.43%,2.33%,2.06%,4.99%,0.852%
CC(C)NC(=O)N1Cc2c(sc3c2CCCC3)-n2cccc2C1c1ccccc1 (stereo not given),-11.9%,2.19%,3.63%,-18%,-3.1%
CC(CN1C(=O)c2ccc(-c3ccco3)n2CC1(C)C(=O)NC1CCCCC1)c1ccccc1 (stereo not given),-7.16%,2.84%,-1.52%,-12.5%,-7.46%
CCOC(=O)C1CCCN(c2nc3c(-c4cccc(F)c4)nnn3c3ccc(Cl)cc23)C1 (stereo not given),2.58%,5.26%,7.47%,8.19%,-0.629%
COc1ccc2cc3n(c2c1)CC(C)(C(=O)NC1CCCC1)N(c1ccccc1OC)C3=O (stereo not given),0.316%,2.04%,3.23%,-5.23%,-0.302%
CC(C)(C)c1cc(C(=O)O)c(NC(=O)Nc2ccc3[nH]ncc3c2)s1,-6.27%,1.29%,7.37%,-17.7%,5.15%
CCOC(=O)c1cc2n(n1)CC(C)(C(=O)NC1CCCC1)N(c1cccc(CC)c1)C2=O (stereo not given),-1.34%,2.61%,-1.33%,-2.72%,-2.87%
O=C(c1ccc(-c2noc(C3CC3)n2)cc1)N1CCC2(CCOCC2)CC1,-7.07%,-11.4%,-3.9%,-15.6%,-8.95%
CSCC(=O)NCCC[C@H](NC(=O)[C@@H]1[C@@H](NC(=O)NC2CCCCC2)CCN1C(=O)CSC)C(N)=O,-5.75%,-6.85%,-6.6%,-10.1%,-0.231%
Cc1nc2c3ccccc3n3c(CCCC(=O)N4CCN(Cc5ccccc5)CC4)nnc3n2n1,-29.2%,0.074%,5.17%,3.64%,1.87%
O=c1[nH]c2ccc(S(=O)(=O)NC3CCN(Cc4ccccc4)CC3)cc2[nH]1,3.83%,0%,-2.27%,-6.24%,-2.48%
CN(C)c1ccc(-c2nc3ncc(Cl)c(N4CCN(CC(=O)Nc5nccs5)CC4)c3[nH]2)cc1,5.16%,-8.65%,0.942%,-23.6%,-3.85%
O=C1CCCC2=C1C(c1[nH]ncc1Cl)N=C(Nc1nc3ccccc3o1)N2 (stereo not given),-7.72%,4.14%,10%,-40%,9.1%

SMILES,"activity change, negative = inhibition [1]","activity change, negative = inhibition [2]","activity change, negative = inhibition [3]","activity change, negative = inhibition [4]","activity change, negative = inhibition [5]"
COCCN1C(=O)c2nc3ccccc3n2CC1(C)C(=O)NC1CCCCC1C (stereo not given),3.75%,1.35%,0.357%,10.9%,1.42%
CC(C)Cn1c(=O)c2ccccc2n2c(SCc3cccc(Cl)c3)nnc12,-1.86%,0%,4.89%,-11%,5.04%
COc1ccc(NC(=O)Cn2nc3n(Cc4ccc(F)cc4)c(=O)c4ccccc4n3c2=O)cc1OC,3.27%,0%,9.56%,7.46%,5.5%
COc1ccc(CN2C(=O)c3c(NC(C)=O)c4ccccc4n3CC2(C)C(=O)NC2CCCC2)cc1 (stereo not given),0.959%,0%,5.1%,6.54%,4.62%
Cn1c(=O)n(C)c2cc(S(=O)(=O)Nc3cc4c(cc3NCc3ccccc3)n(C)c(=O)n4C)ccc21,-27.2%,-14.5%,-39.9%,-23.2%,-14%
CNC(=O)[C@H]1O[C@@H](n2cnc3c(NCc4ccc(I)cc4)nc(Cl)nc32)[C@H](O)[C@@H]1O,-29.1%,-1.97%,-1.31%,-17%,-4.17%
C/C=C(/C)C(=O)O[C@H]1C=C(C)C[C@H](OC(=O)c2ccc(O)cc2)C2[C@](O)(C(C)C)CC[C@@]21C (stereo not given in full),0%,7.67%,9.32%,-10.8%,2.08%
COc1ccc(CN2C(=O)c3cc4occc4n3CC2(C)C(=O)NC2CCC(C)CC2)cc1 (stereo not given),-3.84%,3.75%,2.21%,-9.23%,-1.53%
CCC1c2ccc(C)n2CCN1C(=O)Nc1cc(OC)ccc1OC (stereo not given),-5.18%,1.68%,1.98%,2.55%,-2.47%
CC(C)CCn1c(=O)c2ccc(C(=O)NC3CCCC3)cc2n2c(=O)n(CC(N)=O)nc12,2.73%,0.311%,4.14%,-2.5%,-1.63%
CC1CCCCC1NC(=O)C1(C)Cn2c(ccc2-c2ccco2)C(=O)N1Cc1ccccc1 (stereo not given),-2.39%,5.01%,0.364%,1.27%,-1.66%
Cc1ccc(-c2ccnc(N(C)CC3CC(=O)N(C(C)(C)C)C3)n2)c(C)n1 (stereo not given),-9.02%,-2.45%,-0.491%,-6.39%,-1.61%
CCCCN1C(=O)CSc2c(c3ccccc3n2C)C1C(=O)NCc1ccccc1OC (stereo not given),8.9%,0%,3.96%,-7%,4.55%
O=C(O)CC1(O)C(=O)Nc2ccccc21 (stereo not given),1.06%,-0.057%,6.85%,-9.87%,-4.89%
CC1CCC(NC(=O)C2(C)Cn3c(cc4occc43)C(=O)N2CCc2ccccc2)CC1 (stereo not given),-13.5%,2.55%,-7.07%,-10.4%,-8.32%
CC(C)OCCCN1C(=O)c2cc3sccc3n2CC1(C)C(=O)NC1CCCCC1C (stereo not given),0.83%,1.58%,2%,3.89%,-2.86%
CCN1C(=O)c2cc(C(=O)NCc3cc(OC)ccc3OC)nn2CC1(C)C(=O)NC1CCCC1 (stereo not given),2.78%,0%,3.13%,1.98%,2.75%
CC(C)CCNC(=O)C1(C)Cn2c(cc3ccccc32)C(=O)N1Cc1ccccc1Cl (stereo not given),6.13%,0%,9.56%,2.38%,2.37%
COc1cc(OC)cc(C(=O)NCC2CCCN(Cc3cc4ccccc4o3)C2)c1 (stereo not given),-6.02%,-8.21%,-2.58%,-11%,-6.57%
COc1ccc(OC)c(N2C(=O)c3cc4occc4n3CC2(C)C(=O)NC2CCCCCCC2)c1 (stereo not given),-10.7%,0%,1.96%,-8.62%,-1.06%

SMILES,"activity change, negative = inhibition [1]","activity change, negative = inhibition [2]","activity change, negative = inhibition [3]","activity change, negative = inhibition [4]","activity change, negative = inhibition [5]"
Cn1c(=O)c2ccc(C(=O)NC3CCCC3)cc2n2c(=O)n(Cc3ccc(F)cc3)nc12,-6.14%,2.15%,-7.62%,-5.96%,-4.21%
Nc1ncnc2c1c(-c1ccc(Oc3ccccc3)cc1)nn2[C@@H]1CCCNC1,-32.1%,10.4%,-41.1%,-64.4%,-13.2%
CCOc1ccc(CNC(=O)CN(C)S(=O)(=O)c2ccc3[nH]c4c(c3c2)CCCC4)cc1OC,1.13%,0.936%,1.27%,-1.88%,-0.335%
CC(=O)OC1CCC2(C)C(CCC3(C)C2CC=C2C4CC(C)(C)CCC4(C)CCC23C)C1(C)C(=O)O (stereo not given),1.45%,8.81%,9.37%,-10.5%,-1.54%
CC1(C(=O)NC2CCCCC2)Cn2c(cc3occc32)C(=O)N1Cc1ccccc1 (stereo not given),-4.7%,0.297%,-7.17%,-0.989%,-9.64%
Cc1ccc(C)c(N2CCN(S(=O)(=O)c3cc4[nH]c(=O)[nH]c4cc3Cl)CC2)c1,-3.33%,0.346%,-5.2%,-4.03%,-7.91%
CCc1noc(CN(C(=O)c2oc3ccc(C)cc3c2C)C(C)C)n1,-2.37%,0.547%,-2.02%,-2.4%,1.93%
COc1ccccc1N1CCN(C(=O)CCc2nnc3n(Cc4ccccc4)c(=O)c4ccccc4n23)CC1,-12.8%,1.88%,-9.06%,-11.3%,-10.1%
O=C(c1cccn1C1CC1)N1C[C@H](CO)C[C@H](CN2CCCC2)C1,-7.35%,-6.73%,-2.62%,-10.4%,-19.6%
COc1ccc2c(c1)c(CN1C[C@@H](CO)[C@H](c3nc(C)no3)C1)cn2C,-1.11%,-1.12%,1.57%,-3.8%,1.09%
CC(C(=O)Nc1nccs1)N1CCN(c2nccnc2C#N)CC1 (stereo not given),-5.12%,-2.45%,-3.03%,-2.86%,-0.165%
NC(=O)C1CCN(c2cc(-c3noc([C@@H]4CCCN4Cc4ccc(Cl)cc4)n3)ccn2)CC1,-7.11%,-4.38%,-3.25%,-3.63%,14.4%
Cc1cc(C)cc(N2C(=O)c3cc4oc(C)cc4n3CC2(C)C(=O)NC2CCCCCC2)c1 (stereo not given),2.44%,0%,4.37%,6%,3.52%
Cc1ccccc1CN1C(=O)c2cc3sccc3n2CC1(C)C(=O)NC1CCCCC1C (stereo not given),39.2%,0%,1.43%,1.74%,-3.32%
CCC1(N2CCN(S(=O)(=O)c3cccs3)CC2)CCN(S(C)(=O)=O)C1 (stereo not given),-6.96%,-9.65%,-6.16%,-14.5%,-11.3%
CCNc1nc(Nc2cc(F)c(C(=O)N3CCOCC3)cc2OC)ncc1C(F)(F)F,1.19%,-8.65%,7.97%,-71.8%,-12.1%
O=C(NC1CCCCCC1)C1CCc2nnc(-c3ccccn3)n21 (stereo not given),-5.01%,-13.4%,-4.06%,-20.7%,-10.5%
O=C(Nc1ccc(F)cc1)c1c[nH]c2cccnc12,-9.46%,-12.3%,-12%,-19.7%,-16.6%
CN1C(=O)c2cc(C(=O)N3CCN(c4ccccc4)CC3)nn2CC1(C)C(=O)NC1CCCC1 (stereo not given),6.15%,3.1%,8.94%,10.9%,3.89%
COc1ccc(CNC(=O)c2cc3n(n2)CC(C)(C(=O)NC2CCCC2)N(C)C3=O)c(OC)c1 (stereo not given),-3.35%,-1.01%,-2.43%,-4.43%,-0.499%
